Data reported in the supplement of paper PMC10126150.
Values marked as one replicate rest on one cluster of the flow cell; about a third of the high ones do not repeat.

Tested on: ATP
Assay: switch fluorescence ratio, 500 uM ATP over buffer (Cy3 cluster intensity, sum of 5 cycles each) (fold (ratio)); higher = stronger signal-on switching upon ATP binding; sequences stand for … in TCGTCGGCAGCGTCAGATGTGTATAAGAGACAGTTTTTTTTTTTTTTTTTTTTTTTTT…TC
Settings: aptamer strand: ATP DNA aptamer (quencher-CACCTGGGGGAGTATTGCGGAGGAAGG + anchor), 100 nM annealed; ATP concentration: 500 uM; one replicate
In short: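 Cy3-labelled switching-strand clusters on a modified Illumina MiSeq flow-cell were annealed to 100 nM quencher-labelled ATP aptamer and imaged first in selection buffer, then after 15 min with 500 uM ATP at 22 °C. NaOH stripping and re-annealing separated each of five buffer/ATP cycles, and clusters outside 100-1000 RFU were excluded. The fluorescence ratio sums target-cycle Cy3 intensity over buffer-cycle Cy3 intensity per cluster and averages it per switch-domain sequence.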
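Also: ATP exposure 15 min at 22 °C before imaging.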

Sequence	switch fluorescence ratio
ACACTATTAG	1.03
ACACTGATGT	1.05
ACACTGTCGT	1
ACACTTAACA	1.08
ACAGAACGTG	1.14
ACAGAATATT	1.02
ACAGAATCGC	1.02
ACAGAGGCGT	0.995
ACAGATGCG	0.997
ACAGATTAGG	1.01
ACAGATTGCA	1.03
ACAGCAACTC	2.17
ACAGCCTGAA	0.985
ACAGCGCCGT	1.03
ACAGCGCGAG	1.02
ACAGCGTTTT	1.02
ACAGCTGGGC	0.98
ACAGGAAAT	0.987
ACAGGACCAT	1.12
ACAGGAGGCT	1.03
ACAGGCCCAA	1.03
ACAGGCGCCG	1.09
ACAGGCGTC	1.04
ACAGGTAGTA	1.07
ACAGGTGACG	1.08
ACAGGTGTA	2.12

Sequence	switch fluorescence ratio
ACAGGTTTCA	0.998
ACAGTAACAC	1.1
ACAGTCTTTC	0.959
ACAGTGAATA	1.04
ACAGTGGCGA	0.97
ACAGTTAAAA	0.981
ACAGTTAACA	1.01
ACAGTTAGGA	0.977
ACAGTTATCC	1.03
ACAGTTCACT	1.04
ACAGTTCGCA	1.05
ACAGTTTCCA	0.988
ACATAAATAC	1.38
ACATAACTGT	1.05
ACATAAGTTA	1.04
ACATACACCT	1.33
ACATACCTAA	1.27
ACATAGGGTG	1.19
ACATAGGTTT	0.993
ACATAGTGTT	1.06
ACATATTCTG	0.979
ACATCAAGCT	1.05
ACATCACCCT	1.41
ACATCATAGT	1.04
ACATCCCGGG	0.977
ACATCGATGG	0.989

Sequence	switch fluorescence ratio
ACATGAAGGC	0.927
ACATGACCAG	1.08
ACATGAGGAT	1.05
ACATGCTGAA	0.99
ACATGCTGCT	0.962
ACATGGAGGC	1.01
ACATGGGAAG	1
ACATGTGAGC	1
ACATGTGATG	1.01
ACATTAGAAT	0.979
ACATTCCGTA	1.06
ACATTCTG	1.02
ACATTGAAGG	0.991
ACATTGAATA	1.05
ACATTGATCC	1.05
ACATTGGGGA	0.991
ACATTTACT	1.24
ACATTTGACT	0.992
ACATTTGCAT	0.981
ACCAAAAGG	0.981
ACCAACGTGG	1.09
ACCAACTCGG	1.07
ACCAACTCGT	1.01
ACCAAGAGAG	1.03
ACCAAGTCTA	1.01
ACCAATCAA	0.973

Sequence	switch fluorescence ratio
ACCAATTAAT	0.97
ACCACGAGGC	1.05
ACCACTTCA	1.11
ACCAGAATCA	1.05
ACCAGATCCG	1.11
ACCAGCGTTT	1
ACCAGTAACG	1.05
ACCAGTGTTG	1.02
ACCAGTTAGC	1
ACCATACGTC	1.29
ACCATTAGCT	1.01
ACCATTCTGC	0.935
ACCATTGGTA	1.01
ACCATTTCTC	1.05
ACCCAACGGA	1.19
ACCCAATTGG	0.992
ACCCACGTCC	1.49
ACCCCAAACG	1.15
ACCCCAATCC	1.53
ACCCCATG	1.27
ACCCGATTTT	0.991
ACCCGCGCAT	2.38
ACCCGGGCAT	1.09
ACCCGTTCCC	1.02
ACCCTAGAGA	1.02
ACCCTATGGG	0.999

Sequence	switch fluorescence ratio
ACCCTATTCA	1.09
ACCCTCTAGC	1.08
ACCCTGGGTC	1.69
ACCCTGTCTG	1.02
ACCCTTGATG	1.03
ACCCTTGCTT	0.999
ACCGAAAGAA	1.08
ACCGAATGCA	1.25
ACCGACCGGC	1.36
ACCGATAGGA	1.11
ACCGATATTT	0.989
ACCGATGGGT	1.03
ACCGATTACA	1.03
ACCGCCTCTT	1.14
ACCGCGTAAT	1.07
ACCGCTAAGT	1.26
ACCGCTAAT	2.05
ACCGGAAAAG	1.03
ACCGGACAGC	1.34
ACCGGCAAAT	1.05
ACCGGCCAGT	1.08
ACCGGCGGCG	1.01
ACCGGGCGGA	1.01
ACCGGGTAAG	0.979
ACCGGGTCAA	1.09
ACCGGTGACC	1.07

Sequence	switch fluorescence ratio
ACCGTACATG	1.47
ACCGTGGGCT	0.96
ACCTAAAGGT	1.09
ACCTAGAGTC	1.1
ACCTAGATTG	1.03
ACCTCAAGTA	1.04
ACCTCCCGGT	1.02
ACCTCCGGT	1.07
ACCTCGCTGA	1.18
ACCTCGGGCA	1.08
ACCTCTTGAT	0.984
ACCTCTTGG	1.03
ACCTGAGCCC	1.05
ACCTGCTCCT	1.13
ACCTGCTGTA	0.994
ACCTGGGCTA	1.04
ACCTGGTTT	1
ACCTTCAACG	2.41
ACCTTCCTGT	2.57
ACCTTGATAC	1.5
ACCTTGGCCC	0.955
ACCTTGGGAC	1.02
ACCTTGTATT	1.02
ACCTTTAAGT	1.02
ACCTTTCTAC	1.65
ACGAAACAAA	0.982

Sequence	switch fluorescence ratio
ACGAAAGAAA	0.991
ACGAAAGGGG	1.04
ACGAACATTT	1.29
ACGAACGTGG	1.1
ACGAACTTAA	1.28
ACGAATATAA	1.03
ACGAATCAAA	1.03
ACGACAAAAA	1.11
ACGACAACTT	1.3
ACGACAGCCC	1.34
ACGACCCTGA	1.31
ACGACTTCAG	1.09
ACGAGAATAG	1.08
ACGAGATAAA	0.996
ACGAGCACCA	1.35
ACGAGCTTAT	1.26
ACGAGGCCTC	0.987
ACGAGGGAGT	1.03
ACGAGGGCAA	4.01
ACGAGGTCGA	1.02
ACGAGTCTGA	1.07
ACGAGTGCAG	1.05
ACGAGTGCTT	0.993
ACGATCGTGT	0.967
ACGATGGCCC	1.05
ACGATGTCCA	1.02

Sequence	switch fluorescence ratio
ACGATTAAT	1.06
ACGATTACAT	1.14
ACGATTATAT	1.03
ACGATTTCC	1.14
ACGATTTGTC	0.958
ACGCAGTGCT	1.72
ACGCATAGGT	1.15
ACGCCTAATC	1.15
ACGCGATTAA	1.16
ACGCGGGACG	1.04
ACGCGGGGT	0.985
ACGCGTACCG	1.02
ACGCGTTGAC	0.987
ACGCTCAC	2.13
ACGCTCGGAA	1.6
ACGCTGAGGA	1.06
ACGCTTTTGA	1.05
ACGCTTTTGC	1.07
ACGGAACGCC	1.09
